This note sets out measurements from the domain aggregation screens of Martell et al. (2025).

A short description of this series: soluble fraction after stress (log2 fold change); higher = more stays soluble; pooled small domains, quantitative proteomics. The settings on record: stress: pH 4. An outline of the steps: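 Aggregation propensity here comes from the fold change in the soluble amount of each small protein domain after acid stress, measured in pooled custom libraries by high-throughput quantitative proteomics. The acid stress was pH 4. On the log2 scale, higher values mean more of the domain stayed soluble.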

On to “HMSDMGRDEAYEILGLARDSSEAEIREAHKKLMINNHPDHGGSAYLATKINRARDVLLDELNFF”, for which the “soluble fraction (log2)” value was -1.44.
Regarding “HMKMVEGKVKWFNDSKGFGFIEQDGGKDVFVHHSAIQAEGFKSLAEGERVSFDVVAGPKGPAAANVRK”, the “soluble fraction (log2)” value is no less than 0.43.
Next, “HMLSQEALEFVRSLVDRPMVIFTTAYSEYAVEGFKLDAVDYLLKPFSFADFSRSAGKANSLYELRHN”: -0.393; “HMSDYYQDLGVERSATPEEIKRAYRRLARQLHPDVNPGAEAEEQFKTVSRAYEVLSDADKRRNYDLGVDP”: 0.149; “HMGPSEPVIVKWFNRLKGYGFVTRPDGEADIFVHMETVRRAGLAELMPGQTLHARITEGQKGPLVVALGE”: -1.18.
As for “HMNNAVITINNLVKRFPVGGDFFTALKDIDLTLNKGEFTGLIGPSGSGKTTLLNIIGGLDSPTEGQVSV”, the “soluble fraction (log2)” value worked out at 0.201.
Next, “HMVSSEQHYTVLGITKQATDTEVKKAYRKMAVKYHPDKLQGVSEDIKKLSEEKFLKVKEAYEQIMKGR”: -0.286; “HMDSLPEPIKRLLNVLGDKKLSAAEIMEQLGLSHRATFRKNYLNPALELGLIEMTIPDKPNSRNQKYIKKQ”: -0.342; “HMQFGLDQVAHQRAHTLSGGMQRRLSIAMGLITNPKILFLDEPTVGLDVLARHELWHTLTALK”: 0.22.
In the case of “HMETLAWADTAQNGLDRLVAAQPILVRISAAKRLRDAAEQIARSAGVATVEIEHVQHASDSLQFGDA” it was -0.745.
